Data taken from the supplement of paper PMC8728848.
The list shows a part of the results.

Tests used:
Experiment in all cases: glycan array binding signal (z-score within array); higher = stronger binding
Conditions in all cases: glycan notation: IUPAC condensed, linker removed; mutation: R120K
[1] = target: Gal3S(b1-3)[Fuc(a1-4)]GlcNAc
Method in brief: (§1)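 Columns mapping to the same glycan were averaged after glycan names were converted to IUPAC-condensed notation. The data come from 3228 arrays in the Consortium for Functional Glycomics database, limited to those with an available protein sequence. Binding is reported as a within-array Z-score averaged across arrays of one protein sequence and across linkers.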

Gal3S(b1-4)Glc = target: Gal3S(b1-4)Glc
Method in brief: as §1

Gal3S(b1-4)Glc6S = target: Gal3S(b1-4)Glc6S
Method in brief: as §1

Gal3S(b1-4)GlcNAc = target: Gal3S(b1-4)GlcNAc
Method in brief: as §1

[2] = target: Gal3S(b1-4)[Fuc(a1-3)]Glc6S
Method in brief: as §1

[3] = target: Gal3S(b1-4)[Fuc(a1-3)]GlcNAc
Method in brief: as §1

[4] = target: Gal3S(b1-4)[Fuc(a1-3)]GlcNAc6S
Method in brief: as §1

Gal3S4S(b1-4)GlcNAc = target: Gal3S4S(b1-4)GlcNAc
Method in brief: as §1

Gal3S6S(b1-4)GlcNAc = target: Gal3S6S(b1-4)GlcNAc
Method in brief: as §1

Gal3S6S(b1-4)GlcNAc6S = target: Gal3S6S(b1-4)GlcNAc6S
Method in brief: as §1

Gal4S(b1-4)GlcNAc = target: Gal4S(b1-4)GlcNAc
Method in brief: as §1

Gal4S6S(b1-4)GlcNAc = target: Gal4S6S(b1-4)GlcNAc
Method in brief: as §1

Gal6P(b1-4)GlcNAc = target: Gal6P(b1-4)GlcNAc
Method in brief: as §1

Gal6S(b1-3)GlcNAc = target: Gal6S(b1-3)GlcNAc
Method in brief: as §1

Gal6S(b1-3)GlcNAc6S = target: Gal6S(b1-3)GlcNAc6S
Method in brief: as §1

Gal6S(b1-4)Glc = target: Gal6S(b1-4)Glc
Method in brief: as §1

Gal6S(b1-4)Glc6S = target: Gal6S(b1-4)Glc6S
Method in brief: as §1

Gal6S(b1-4)GlcNAc = target: Gal6S(b1-4)GlcNAc
Method in brief: as §1

Gal6S(b1-4)GlcNAc6S = target: Gal6S(b1-4)GlcNAc6S
Method in brief: as §1

GalNAc(a1-3)Gal = target: GalNAc(a1-3)Gal
Method in brief: as §1

GalNAc(a1-3)GalNAc = target: GalNAc(a1-3)GalNAc
Method in brief: as §1

[5] = target: GalNAc(a1-3)GalNAc(b1-3)Gal(a1-4)Gal(b1-4)Glc
Method in brief: as §1

[6] = target: GalNAc(a1-3)GalNAc(b1-3)Gal(a1-4)Gal(b1-4)GlcNAc
Method in brief: as §1

GalNAc(b1-3)Gal = target: GalNAc(b1-3)Gal
Method in brief: as §1

[7] = target: GalNAc(b1-3)Gal(a1-4)Gal(b1-4)GlcNAc
Method in brief: as §1

[8] = target: GalNAc(b1-3)Gal(a1-4)Gal(b1-4)GlcNAc(b1-3)Gal(b1-4)Glc
Method in brief: as §1

[9] = target: GalNAc(b1-3)Gal(a1-6)Gal(b1-4)Glc
Method in brief: as §1

GalNAc(b1-3)GalNAc = target: GalNAc(b1-3)GalNAc
Method in brief: as §1

GalNAc(b1-3)GlcNAc = target: GalNAc(b1-3)GlcNAc
Method in brief: as §1

GalNAc(b1-4)Gal(b1-4)Glc = target: GalNAc(b1-4)Gal(b1-4)Glc
Method in brief: as §1

GalNAc(b1-4)GlcNAc = target: GalNAc(b1-4)GlcNAc
Method in brief: as §1

[10] = target: GalNAc(b1-4)GlcNAc(b1-2)Man
Method in brief: as §1

[11] = target: GalNAc(b1-4)GlcNAc(b1-2)Man(a1-3)[GalNAc(b1-4)GlcNAc(b1-2)Man(a1-6)]Man(b1-4)GlcNAc(b1-4)GlcNAc
Method in brief: as §1

[12] = target: GalNAc(b1-4)GlcNAc(b1-3)GalNAc(b1-4)GlcNAc
Method in brief: as §1

GalNAc(b1-4)GlcNAc6S = target: GalNAc(b1-4)GlcNAc6S
Method in brief: as §1

GalNAc(b1-6)GalNAc = target: GalNAc(b1-6)GalNAc
Method in brief: as §1

GalNAc3S(b1-4)GlcNAc = target: GalNAc3S(b1-4)GlcNAc
Method in brief: as §1

GalNAc3S(b1-4)GlcNAc3S = target: GalNAc3S(b1-4)GlcNAc3S
Method in brief: as §1

[13] = target: GalNAc3S(b1-4)[Fuc(a1-3)]GlcNAc
Method in brief: as §1

GalNAc4S6S(b1-4)GlcNAc = target: GalNAc4S6S(b1-4)GlcNAc
Method in brief: as §1

GalNAc6S(b1-4)GlcNAc = target: GalNAc6S(b1-4)GlcNAc
Method in brief: as §1

Glc(a1-4)Glc = target: Glc(a1-4)Glc
Method in brief: as §1

[14] = target: Glc(a1-4)Glc(a1-4)Glc(a1-4)Glc
Method in brief: as §1

Glc(a1-6)Glc(a1-6)Glc = target: Glc(a1-6)Glc(a1-6)Glc
Method in brief: as §1

[15] = target: Glc(a1-6)Glc(a1-6)Glc(a1-6)Glc
Method in brief: as §1

B1: Siglec-9 (Homo sapiens), Q9Y336 (protein)
chain: MLLLLLPLLWGRERAEGQTSKLLTMQSSVTVQEGLCVHVPCSFSYPSHGWIYPGPVVHGYWFREGANTDQDAPVATNNPARAVWEETRDRFHLLGDPHTKNCTLSIRDARRSDAGRYFFKMEKGSIKWNYKHHRLSVNVTALTHRPNILIPGTLESGCPQNLTCSVPWACEQGTPPMISWIGTSVSPLDPSTTRSSVLTLIPQPQDHGTSLTCQVTFPGASVTTNKTVHLNVSYPPQNLTMTVFQGDGTVSTVLGNGSSLSLPEGQSLRLVCAVDAVDSNPPARLSLSWRGLTLCPSQPSNPGVLELPWVHLRDAAEFTCRAQNPLGSQQVYLNVSLQSKATSGVTQGVVGGAGATALVFLSFCVIFVVVRSCRKKSARPAAGVGDTGIEDANAVRGSASQGPLTEPWAEDSPPDQPPPASARSSVGEGELQYASLSFQMVKPWDSRGQEATDTEYSEIKIHR
Question: For B1, which “glycan array binding signal (z-score)” value [1] is on record?
Answer: -0.39

Question: What about the “glycan array binding signal (z-score)” value (Gal3S(b1-4)Glc) of the same binder?
Answer: 0.244

Question: What about the “glycan array binding signal (z-score)” value (Gal3S(b1-4)Glc6S) of the same binder?
Answer: 0.373

Question: What about the “glycan array binding signal (z-score)” value (Gal3S(b1-4)GlcNAc) of the same binder?
Answer: -0.151

Question: And the “glycan array binding signal (z-score)” value [2]?
Answer: 0.005

Question: And the “glycan array binding signal (z-score)” value [3]?
Answer: 0.111

Question: What about the “glycan array binding signal (z-score)” value [4] of the same binder?
Answer: 0.417

Question: What about the “glycan array binding signal (z-score)” value (Gal3S4S(b1-4)GlcNAc) of the same binder?
Answer: -0.22

Question: What about the “glycan array binding signal (z-score)” value (Gal3S6S(b1-4)GlcNAc) of the same binder?
Answer: 0.121

Question: And the “glycan array binding signal (z-score)” value (Gal3S6S(b1-4)GlcNAc6S)?
Answer: 1.35

Question: What about the “glycan array binding signal (z-score)” value (Gal4S(b1-4)GlcNAc) of the same binder?
Answer: -0.468

Question: And the “glycan array binding signal (z-score)” value (Gal4S6S(b1-4)GlcNAc)?
Answer: 0.149

Question: What about the “glycan array binding signal (z-score)” value (Gal6P(b1-4)GlcNAc) of the same binder?
Answer: 0.007

Question: What about the “glycan array binding signal (z-score)” value (Gal6S(b1-3)GlcNAc) of the same binder?
Answer: -0.227

Question: What about the “glycan array binding signal (z-score)” value (Gal6S(b1-3)GlcNAc6S) of the same binder?
Answer: 1.72

Question: What about the “glycan array binding signal (z-score)” value (Gal6S(b1-4)Glc) of the same binder?
Answer: -0.159

Question: And the “glycan array binding signal (z-score)” value (Gal6S(b1-4)Glc6S)?
Answer: 0.816

Question: And the “glycan array binding signal (z-score)” value (Gal6S(b1-4)GlcNAc)?
Answer: -0.636

Question: What about the “glycan array binding signal (z-score)” value (Gal6S(b1-4)GlcNAc6S) of the same binder?
Answer: 0.596

Question: And the “glycan array binding signal (z-score)” value (GalNAc(a1-3)Gal)?
Answer: 0.045

Question: And the “glycan array binding signal (z-score)” value (GalNAc(a1-3)GalNAc)?
Answer: -0.472

Question: What about the “glycan array binding signal (z-score)” value [5] of the same binder?
Answer: -0.517

Question: What about the “glycan array binding signal (z-score)” value [6] of the same binder?
Answer: -0.469

Question: What about the “glycan array binding signal (z-score)” value (GalNAc(b1-3)Gal) of the same binder?
Answer: -0.291

Question: What about the “glycan array binding signal (z-score)” value [7] of the same binder?
Answer: -0.172

Question: What about the “glycan array binding signal (z-score)” value [8] of the same binder?
Answer: -0.064

Question: And the “glycan array binding signal (z-score)” value [9]?
Answer: -0.354

Question: What about the “glycan array binding signal (z-score)” value (GalNAc(b1-3)GalNAc) of the same binder?
Answer: -0.48

Question: What about the “glycan array binding signal (z-score)” value (GalNAc(b1-3)GlcNAc) of the same binder?
Answer: -0.343

Question: And the “glycan array binding signal (z-score)” value (GalNAc(b1-4)Gal(b1-4)Glc)?
Answer: 1.78

Question: And the “glycan array binding signal (z-score)” value (GalNAc(b1-4)GlcNAc)?
Answer: -0.443

Question: What about the “glycan array binding signal (z-score)” value [10] of the same binder?
Answer: -0.292

Question: What about the “glycan array binding signal (z-score)” value [11] of the same binder?
Answer: -0.384

Question: And the “glycan array binding signal (z-score)” value [12]?
Answer: -0.389

Question: And the “glycan array binding signal (z-score)” value (GalNAc(b1-4)GlcNAc6S)?
Answer: -0.142

Question: And the “glycan array binding signal (z-score)” value (GalNAc(b1-6)GalNAc)?
Answer: -0.358

Question: What about the “glycan array binding signal (z-score)” value (GalNAc3S(b1-4)GlcNAc) of the same binder?
Answer: -0.59

Question: And the “glycan array binding signal (z-score)” value (GalNAc3S(b1-4)GlcNAc3S)?
Answer: -0.23

Question: And the “glycan array binding signal (z-score)” value [13]?
Answer: -0.228

Question: What about the “glycan array binding signal (z-score)” value (GalNAc4S6S(b1-4)GlcNAc) of the same binder?
Answer: 0.324

Question: And the “glycan array binding signal (z-score)” value (GalNAc6S(b1-4)GlcNAc)?
Answer: -0.304

Question: What about the “glycan array binding signal (z-score)” value (Glc(a1-4)Glc) of the same binder?
Answer: -0.25

Question: What about the “glycan array binding signal (z-score)” value [14] of the same binder?
Answer: 1.27

Question: And the “glycan array binding signal (z-score)” value (Glc(a1-6)Glc(a1-6)Glc)?
Answer: 0.116

Question: And the “glycan array binding signal (z-score)” value [15]?
Answer: 0.714
